According to PubChem BioAssay AID485294 (National Center for Advancing Translational Sciences (NCATS), 2010):
Screen size: about 370,000 compounds; about 150 (0.041%) were called active. Inconclusive means that the source gave no clear call. Such entries were picked first, then a sample of the others. Calls follow the shape of the dose curve; as a rule, active = well fitted inhibition curve with a large enough effect; inconclusive = small, poorly fitted or top-dose-only effect; inactive = flat fitted curve, though single readings scatter. No potency is given beside an inconclusive call; the fits are too rough.
Also: nearly all actives have a fitted effect of over 25% in size.
Potency is read from the fitted curve at half-maximal effect; tags tell the direction and shape of the fitted curve.

These compounds were tested against Beta-lactamase (Escherichia coli (strain K12)) (UniProt P00811) (assay: qHTS Inhibitors of AmpC Beta-Lactamase (assay with detergent)). Conditions: AmpC hydrolysis of nitrocefin, absorbance 480 nm, 0.01% Triton; series mostly up to 114 µM.
Chain of UniProt P00811 (P00811 whole entry, looked up): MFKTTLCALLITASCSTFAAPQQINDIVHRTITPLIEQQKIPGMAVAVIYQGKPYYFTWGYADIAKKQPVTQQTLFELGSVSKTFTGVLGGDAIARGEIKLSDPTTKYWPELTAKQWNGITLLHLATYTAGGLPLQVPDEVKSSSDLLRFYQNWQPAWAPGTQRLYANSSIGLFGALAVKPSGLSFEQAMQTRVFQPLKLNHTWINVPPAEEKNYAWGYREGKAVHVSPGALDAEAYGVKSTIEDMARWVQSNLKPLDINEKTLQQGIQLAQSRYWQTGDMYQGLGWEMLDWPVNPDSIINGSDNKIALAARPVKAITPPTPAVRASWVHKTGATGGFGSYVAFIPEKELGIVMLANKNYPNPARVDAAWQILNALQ
How it was run: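 20 mM phosphate pH 7.0 + 0.01% (detergent screen) or 0.0001% Triton X-100; 5.3 nM AmpC reagent; cpd preinc 15 min RT; nitrocefin (800 uM stock) to start; A480 q20 s × 4 min; Activity was normalised to no-enzyme and no-compound control wells.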
With CSc1ccc(/C=C/C(=O)OCC(=O)NC2CC2)cc1 the Potency was inconclusive [inhibitor, single point].
In the case of Cc1ccc(NC(=O)CCn2cccn2)cc1Cl, the Potency is reported as “inactive”.
O=c1cccc2n1CC1CC2CN(Cc2cccc(Cl)c2Cl)C1 (stereo unspecified) was tested, and the Potency was “inactive”.
CCN(Cc1cc(=O)n2ccsc2n1)Cc1nc2ccccc2c(=O)[nH]1 was tested, and the Potency was inconclusive [inhibitor, full curve, poor fit].
For COC(=O)C(C(=O)Nc1cc(C)on1)C1CCCCCC1 (stereo unspecified), the Potency was inconclusive [inhibitor, full curve].
O=S(=O)(c1ccccc1)c1nnn2c1nc(NCc1cccs1)c1sccc12 was tested, and the Potency was “inactive”.
For CCOC(=O)Cn1cnc2c(cnn2-c2ccccc2)c1=O, the Potency was “inactive”.
For CC(=O)Nc1ccccc1OCC(=O)c1ccc2c(c1)OCO2, the Potency was inconclusive [inhibitor, partial curve, poor fit].
For O=C(NCc1ccc(Cl)cc1)c1cccc(NC(=O)c2ccccc2)c1, the Potency was “inactive”.
With COc1cccc(-n2nc(-c3ccnn3-c3ccc(F)cc3)c(=O)n(C)c2=O)c1 the Potency was “inactive”.
With O=C(/C=C/Nc1ccc(Oc2ccccc2)cc1)c1ccco1 the Potency was “inactive”.
C=CCOC(=O)C1=C(C)OC(N)=C(C#N)C1c1c(C)nn(-c2ccccc2)c1Cl (stereo unspecified) was tested, and the Potency was inconclusive [inhibitor, single point].
O=Cc1cn(Cc2ccc(F)cc2)c2ccccc12 was tested, and the Potency was inconclusive [inhibitor, single point].
In the case of CCC1=[N+](CC(=O)c2ccc(C)cc2)CCn2c(C)ccc21, the Potency is reported as “inactive”.
With O=C(CN1CCC(NC(=O)c2ccco2)CC1)Nc1cccc2ccccc12 the Potency was inconclusive [inhibitor, partial curve].
For O=C(NC(=S)Nc1ccc(CN2CCOCC2)cc1)c1ccc([N+](=O)[O-])cc1Cl, the Potency was inconclusive [inhibitor, single point].
With COc1ccc(-c2nc3c4c(ncn3n2)-c2ccccc2CC42CCCC2)cc1 the Potency was “inactive”.
For CCOCCCNC(=O)c1cc2c(=O)n(CC)c3ccccc3c2s1, the Potency was “inactive”.
With CCN(CC)C(=O)C1CCN(S(=O)(=O)c2ccc(C3CNC(=O)C3)cc2)CC1 (stereo unspecified) the Potency was inconclusive [inhibitor, full curve].
With COc1ccc(C2C3=C(Nc4ncnn42)c2ccccc2CCC3)cc1 (stereo unspecified) the Potency was inconclusive [inhibitor, full curve].
For O=C(Nc1ccccc1)Nc1ccccn1, the Potency was inconclusive [inhibitor, single point].
In the case of O=C(C1CCC1)N1CCN(S(=O)(=O)c2ccc(Br)cc2Cl)CC1, the Potency is reported as inconclusive [inhibitor, single point].
For O=C(COC(=O)CCS(=O)(=O)c1ccc(Cl)cc1)NC1CCCCC1, the Potency was inconclusive [inhibitor, full curve].
For Cc1ccc(NC(=S)N2CCCCCC2)c(C)c1, the Potency was inconclusive [inhibitor, full curve, poor fit].
CC(C)CC1Nc2ncnc(N3CCCCC3)c2N(Cc2ccc(Br)cc2)C1=O (stereo unspecified) was tested, and the Potency was inconclusive [inhibitor, partial curve].
With CCCCCCCOc1ccc(C(=O)Nc2cccnc2)cc1 the Potency was inconclusive [inhibitor, full curve, poor fit].
In the case of COc1ccc(NC(=O)CC#N)cc1OC, the Potency is reported as inconclusive [inhibitor, full curve, poor fit].
In the case of Cc1cc(=O)n2c(ccc3ccccc32)c1C#N, the Potency is reported as inconclusive [inhibitor, partial curve, poor fit].
COc1ccc(CNC(=O)C(=O)NCC2OCCN2S(=O)(=O)c2ccc3c(c2)OCCO3)cc1 (stereo unspecified) was tested, and the Potency was inconclusive [inhibitor, partial curve, poor fit].
With COc1ccccc1NC(=O)Cn1c(=O)sc2ccccc21 the Potency was inconclusive [inhibitor, full curve].
CCN(CC)S(=O)(=O)c1ccc2c(c1)nc(SCC(=O)NCC1CCCO1)n2CC (stereo unspecified) was tested, and the Potency was inconclusive [inhibitor, partial curve, poor fit].
In the case of CCOC(=O)c1ccc(NC(=O)C2CCN(S(=O)(=O)c3ccc4c(c3)CCCC(=O)N4)CC2)cc1, the Potency is reported as “inactive”.
In the case of CCc1c(C)nc(N)n2c(SCC(=O)N3CCN(c4ccccc4F)CC3)nnc12, the Potency is reported as inconclusive [inhibitor, full curve].
Cc1cc(S(=O)(=O)N2CCOCC2)ccc1OCC(=O)N1CCC(C)CC1 was tested, and the Potency was inconclusive [inhibitor, partial curve].
In the case of O=C(NC(=S)Nc1ccc(Cl)cc1Cl)C1CC1, the Potency is reported as inconclusive [inhibitor, full curve].
In the case of Cc1ccccc1Nc1nc(N)nc(CCl)n1, the Potency is reported as “inactive”.
For O=C(NC(=S)Nc1ccc2c(c1)OCCO2)c1ccc(F)cc1Cl, the Potency was active: 79.4 µM.
In the case of Nc1nc(N2CCN(C/C=C/c3ccccc3)CC2)nc2ccccc12, the Potency is reported as “inactive”.
In the case of CC(C)COc1ccc(C(=O)Nc2cc3nn(-c4ccccc4)nc3cc2Cl)cc1, the Potency is reported as “inactive”.
For CCc1nn2c(=O)cc(COc3ccc(/C=C(\C#N)C(=O)Nc4ccc(F)cc4)cc3OC)nc2s1, the Potency was “inactive”.
In the case of COC(=O)c1[nH]c(C)c(/C(O)=C2\C(=O)C(=O)N(CCN(C)C)C2c2ccccc2OC)c1C (stereo unspecified), the Potency is reported as inconclusive [inhibitor, partial curve].
In the case of COCCNC(=O)c1cc2c(=O)n3cccc(C)c3nc2n1C, the Potency is reported as inconclusive [inhibitor, full curve, poor fit].
With CCCc1cc(=O)oc2cc(OCC(=O)N3CCN(C(=O)C4COc5ccccc5O4)CC3)ccc12 (stereo unspecified) the Potency was inconclusive [inhibitor, partial curve, poor fit].
Cc1ccccc1N/N=C/c1c(C)nc2ccccn12 was tested, and the Potency was “inactive”.
In the case of CCOc1ccc(OCC)c(NC(=O)C2CCN(S(=O)(=O)c3c(C)noc3/C=C/c3ccccc3F)CC2)c1, the Potency is reported as inconclusive [inhibitor, single point].
In the case of Cc1ccnc(NC(=O)c2ccc(S(=O)(=O)N3CCCCCC3)cc2)c1, the Potency is reported as “inactive”.
